Laboratory results reported in the supplement of paper PMC12423691.
The list shows a part of the results. Binding of human transcription factors and regulators to the viral nucleoprotein by AlphaScreen, crude cell-free proteins, amounts not normalised, one pass. Fold of the Venus control; higher = more signal. No active / inactive call. Single-pass screen; sequences are the whole Swiss-Prot entries looked up by name.

B1: ZBTB11, O95625 (protein)
chain: MSSEESYRAILRYLTNEREPYAPGTEGNVKRKIRKAAACYVVRGGTLYYQRRQRHRKTFAELEVVLQPERRRDLIEAAHLGPGGTHHTRHQTWHYLSKTYWWRGILKQVKDYIKQCSKCQEKLDRSRPISDVSEMLEELGLDLESGEESNESEDDLSNFTSSPTTASKPAKKKPVSKHELVFVDTKGVVKRSSPKHCQAVLKQLNEQRLSNQFCDVTLLIEGEEYKAHKSVLSANSEYFRDLFIEKGAVSSHEAVVDLSGFCKASFLPLLEFAYTSVLSFDFCSMADVAILARHLFMSEVLEICESVHKLMEEKQLTVYKKGEVQTVASTQDLRVQNGGTAPPVASSEGTTTSLPTELGDCEIVLLVNGELPEAEQNGEVGRQPEPQVSSEAESALSSVGCIADSHPEMESVDLITKNNQTELETSNNRENNTVSNIHPKLSKENVISSSPEDSGMGNDISAEDICAEDIPKHRQKVDQPLKDQENLVASTAKTDFGPDDDTYRSRLRQRSVNEGAYIRLHKGMEKKLQKRKAVPKSAVQQVAQKLVQRGKKMKQPKRDAKENTEEASHKCGECGMVFQRRYALIMHKLKHERARDYKCPLCKKQFQYSASLRAHLIRHTRKDAPSSSSSNSTSNEASGTSSEKGRTKREFICSICGRTLPKLYSLRIHMLKHTGVKPHACQVCGKTFIYKHGLKLHQSLHQSQKQFQCELCVKSFVTKRSLQEHMSIHTGESKYLCSVCGKSFHRGSGLSKHFKKHQPKPEVRGYHCTQCEKSFFEARDLRQHMNKHLGVKPFQCQFCDKCYSWKKDWYSHVKSHSVTEPYRCNICGKEFYEKALFRRHVKKATHGKKGRAKQNLERVCEKCGRKFTQLREYRRHMNNHEGVKPFECLTCGVAWADARSLKRHVRTHTGERPYVCPVCSEAYIDARTLRKHMTKFHRDYVPCKIMLEKDTLQFHNQGTQVAHAVSILTAGMQEQESSGPQELETVVVTGETMEALEAVAATEEYPSVSTLSDQSIMQVVNYVLAQQQGQKLSEVAEAIQTVKVEVAHISGGE
B2: PARK7, Q99497 (protein)
chain: MASKRALVILAKGAEEMETVIPVDVMRRAGIKVTVAGLAGKDPVQCSRDVVICPDASLEDAKKEGPYDVVVLPGGNLGAQNLSESAAVKEILKEQENRKGLIAAICAGPTALLAHEIGFGSKVTTHPLAKDKMMNGGHYTYSENRVEKDGLILTSRGPGTSFEFALAIVEALNGKEVAAQVKAPLVLKD
B3: ZBTB14, O43829 (protein)
chain: MEFFISMSETIKYNDDDHKTLFLKTLNEQRLEGEFCDIAIVVEDVKFRAHRCVLAACSTYFKKLFKKLEVDSSSVIEIDFLRSDIFEEVLNYMYTAKISVKKEDVNLMMSSGQILGIRFLDKLCSQKRDVSSPDENNGQSKSKYCLKINRPIGDAADTQDDDVEEIGDQDDSPSDDTVEGTPPSQEDGKSPTTTLRVQEAILKELGSEEVRKVNCYGQEVESMETPESKDLGSQTPQALTFNDGMSEVKDEQTPGWTTAASDMKFEYLLYGHHREQIACQACGKTFSDEGRLRKHEKLHTADRPFVCEMCTKGFTTQAHLKEHLKIHTGYKPYSCEVCGKSFIRAPDLKKHERVHSNERPFACHMCDKAFKHKSHLKDHERRHRGEKPFVCGSCTKAFAKASDLKRHENNMHSERKQVTPSAIQSETEQLQAAAMAAEAEQQLETIACS
B4: HES6, Q96HZ4 (protein)
chain: MAPPAAPGRDRVGREDEDGWETRGDRKARKPLVEKKRRARINESLQELRLLLAGAEVQAKLENAEVLELTVRRVQGVLRGRAREREQLQAEASERFAAGYIQCMHEVHTFVSTCQAIDATVAAELLNHLLESMPLREGSSFQDLLGDALAGPPRAPGRSGWPAGGAPGSPIPSPPGPGDDLCSDLEEAPEAELSQAPAEGPDLVPAALGSLTTAQIARSVWRPW
B5: TRIM29, Q14134 (protein)
chain: MEAADASRSNGSSPEARDARSPSGPSGSLENGTKADGKDAKTTNGHGGEAAEGKSLGSALKPGEGRSALFAGNEWRRPIIQFVESGDDKNSNYFSMDSMEGKRSPYAGLQLGAAKKPPVTFAEKGELRKSIFSESRKPTVSIMEPGETRRNSYPRADTGLFSRSKSGSEEVLCDSCIGNKQKAVKSCLVCQASFCELHLKPHLEGAAFRDHQLLEPIRDFEARKCPVHGKTMELFCQTDQTCICYLCMFQEHKNHSTVTVEEAKAEKETELSLQKEQLQLKIIEIEDEAEKWQKEKDRIKSFTTNEKAILEQNFRDLVRDLEKQKEEVRAALEQREQDAVDQVKVIMDALDERAKVLHEDKQTREQLHSISDSVLFLQEFGALMSNYSLPPPLPTYHVLLEGEGLGQSLGNFKDDLLNVCMRHVEKMCKADLSRNFIERNHMENGGDHRYVNNYTNSFGGEWSAPDTMKRYSMYLTPKGGVRTSYQPSSPGRFTKETTQKNFNNLYGTKGNYTSRVWEYSSSIQNSDNDLPVVQGSSSFSLKGYPSLMRSQSPKAQPQTWKSGKQTMLSHYRPFYVNKGNGIGSNEAP
B6: CSRNP3, Q8WYN3 (protein)
chain: MSGILKRKFEEVDGSSPCSSVRESDDEVSSSESADSGDSVNPSTSSHFTPSSILKREKRLRTKNVHFSCVTVYYFTRRQGFTSVPSQGGSTLGMSSRHNSVRQYTLGEFAREQERLHREMLREHLREEKLNSLKLKMTKNGTVESEEASTLTLDDISDDDIDLDNTEVDEYFFLQPLPTKKRRALLRASGVKKIDVEEKHELRAIRLSREDCGCDCRVFCDPDTCTCSLAGIKCQVDRMSFPCGCTKEGCSNTAGRIEFNPIRVRTHFLHTIMKLELEKNREQQIPTLNGCHSEISAHSSSMGPVAHSVEYSIADSFEIETEPQAAVLHLQSAEELDCQGEEEEEEEDGSSFCSGVTDSSTQSLAPSESDEEEEEEEEEEEEEDDDDDKGDGFVEGLGTHAEVVPLPSVLCYSDGTAVHESHAKNASFYANSSTLYYQIDSHIPGTPNQISENYSERDTVKNGTLSLVPYTMTPEQFVDYARQAEEAYGASHYPAANPSVIVCCSSSENDSGVPCNSLYPEHRSNHPQVEFHSYLKGPSQEGFVSALNGDSHISEHPAENSLSLAEKSILHEECIKSPVVETVPV
B7: TFAP4, Q01664 (protein)
chain: MEYFMVPTQKVPSLQHFRKTEKEVIGGLCSLANIPLTPETQRDQERRIRREIANSNERRRMQSINAGFQSLKTLIPHTDGEKLSKAAILQQTAEYIFSLEQEKTRLLQQNTQLKRFIQELSGSSPKRRRAEDKDEGIGSPDIWEDEKAEDLRREMIELRQQLDKERSVRMMLEEQVRSLEAHMYPEKLKVIAQQVQLQQQQEQVRLLHQEKLEREQQQLRTQLLPPPAPTHHPTVIVPAPPPPPSHHINVVTMGPSSVINSVSTSRQNLDTIVQAIQHIEGTQEKQELEEEQRRAVIVKPVRSCPEAPTSDTASDSEASDSDAMDQSREEPSGDGELP
B8: SOHLH2, Q9NX45 (protein)
chain: MASSIICQEHCQISGQAKIDILLVGDVTVGYLADTVQKLFANIAEVTITISDTKEAAALLDDCIFNMVLLKVPSSLSAEELEAIKLIRFGKKKNTHSLFVFIIPENFKGCISGHGMDIALTEPLTMEKMSNVVKYWTTCPSNTVKTENATGPEELGLPLQRSYSEHLGYFPTDLFACSESLRNGNGLELNASLSEFEKNKKISLLHSSKEKLRRERIKYCCEQLRTLLPYVKGRKNDAASVLEATVDYVKYIREKISPAVMAQITEALQSNMRFCKKQQTPIELSLPGTVMAQRENSVMSTYSPERGLQFLTNTCWNGCSTPDAESSLDEAVRVPSSSASENAIGDPYKTHISSAALSLNSLHTVRYYSKVTPSYDATAVTNQNISIHLPSAMPPVSKLLPRHCTSGLGQTCTTHPNCLQQFWAY
B9: PRKCI, P41743 (protein)
chain: MPTQRDSSTMSHTVAGGGSGDHSHQVRVKAYYRGDIMITHFEPSISFEGLCNEVRDMCSFDNEQLFTMKWIDEEGDPCTVSSQLELEEAFRLYELNKDSELLIHVFPCVPERPGMPCPGEDKSIYRRGARRWRKLYCANGHTFQAKRFNRRAHCAICTDRIWGLGRQGYKCINCKLLVHKKCHKLVTIECGRHSLPQEPVMPMDQSSMHSDHAQTVIPYNPSSHESLDQVGEEKEAMNTRESGKASSSLGLQDFDLLRVIGRGSYAKVLLVRLKKTDRIYAMKVVKKELVNDDEDIDWVQTEKHVFEQASNHPFLVGLHSCFQTESRLFFVIEYVNGGDLMFHMQRQRKLPEEHARFYSAEISLALNYLHERGIIYRDLKLDNVLLDSEGHIKLTDYGMCKEGLRPGDTTSTFCGTPNYIAPEILRGEDYGFSVDWWALGVLMFEMMAGRSPFDIVGSSDNPDQNTEDYLFQVILEKQIRIPRSLSVKAASVLKSFLNKDPKERLGCHPQTGFADIQGHPFFRNVDWDMMEQKQVVPPFKPNISGEFGLDNFDSQFTNEPVQLTPDDDDIVRKIDQSEFEGFEYINPLLMSAEECV
B10: HAND2, P61296 (protein)
chain: MSLVGGFPHHPVVHHEGYPFAAAAAAAAAAAASRCSHEENPYFHGWLIGHPEMSPPDYSMALSYSPEYASGAAGLDHSHYGGVPPGAGPPGLGGPRPVKRRGTANRKERRRTQSINSAFAELRECIPNVPADTKLSKIKTLRLATSYIAYLMDLLAKDDQNGEAEAFKAEIKKTDVKEEKRKKELNEILKSTVSSNDKKTKGRTGWPQHVWALELKQ

These binders were tested against nucleoprotein N of Crimean-Congo hemorrhagic fever virus (assay: AlphaScreen luminescence signal relative to Venus negative control (fold); higher = stronger binding to CCHFV N).
Experimental: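 AlphaScreen binding of cell-free made, FLAG-GST-tagged human transcription factors and regulators (crude translation products) to biotinylated N protein; signal as fold of the FLAG-GST-Venus control. One pass.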

| Binder | AlphaScreen luminescence signal |
| --- | --- |
| B1 | 3.53 |
| B2 | 1.12 |
| B3 | 3.72 |
| B4 | 1.86 |
| B5 | 6.19 |
| B6 | 2.65 |
| B7 | 2.51 |
| B8 | 12 |
| B9 | 2.84 |
| B10 | 2.65 |
